Results reported in PubChem BioAssay AID1476 (National Center for Advancing Translational Sciences (NCATS), 2009).
In all, about 200,000 compounds went through this assay and about 4,500 (2.2%) were called active. This list was built around the results that the source calls inconclusive (neither active nor inactive); the mix of calls is not that of the screen. Calls come from the whole dose curve; as a rule, active = well fitted inhibition curve with a large enough effect; inconclusive = small, poorly fitted or top-dose-only effect, or effect the other way; inactive = flat fitted curve, though single readings scatter. A potency beside an inconclusive call is a rough fit, not a confirmed value.

biological target: Cruzipain (Trypanosoma cruzi) (UniProt P25779); assay: qHTS Assay for Promiscuous and Specific Inhibitors of Cruzain (without detergent); settings: purified cruzain, Z-FR-AMC fluorescence, no detergent; note: nearly all actives have a fitted effect of over 40% in size;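 for max response, negative = inhibition: plate controls were enzyme without inhibitor for no effect and buffer without enzyme for full effect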
Sequence of UniProt P25779 (P25779 whole entry, looked up): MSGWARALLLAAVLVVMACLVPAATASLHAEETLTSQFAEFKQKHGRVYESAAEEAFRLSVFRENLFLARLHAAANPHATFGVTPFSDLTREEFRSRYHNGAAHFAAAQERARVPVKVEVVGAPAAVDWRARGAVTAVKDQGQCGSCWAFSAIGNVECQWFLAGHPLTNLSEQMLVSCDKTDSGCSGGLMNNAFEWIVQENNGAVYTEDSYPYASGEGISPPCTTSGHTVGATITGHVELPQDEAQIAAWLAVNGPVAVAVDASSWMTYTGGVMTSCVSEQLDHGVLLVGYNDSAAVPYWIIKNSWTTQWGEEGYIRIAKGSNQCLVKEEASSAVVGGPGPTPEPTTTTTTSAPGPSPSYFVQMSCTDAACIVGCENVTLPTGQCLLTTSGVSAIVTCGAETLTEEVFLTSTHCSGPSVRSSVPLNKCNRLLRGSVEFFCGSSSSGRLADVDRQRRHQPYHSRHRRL
Outline: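 Detergent-free condition (0.00005% Triton X-100) in acetate buffer pH 5.5 with DTT. 1.5 nM enzyme and compound were pre-mixed 15 min, then 2 uM Z-FR-AMC substrate added; reaction progress from fluorescence change between first and third reads (60 s).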
Potency is the fitted concentration of half-maximal effect; tags give direction and shape of the fitted curve.

Compound	max response, negative = inhibition	Potency
CCCCNc1nc(C)nc2c1nc(-c1ccccc1)n2CCCN(C)C	inactive: -3.81%	
C[C@@H]1CC[C@@H]2N(C1)C[C@H]1[C@@](O)([C@H](O)C[C@]3(O)[C@H]4CC[C@H]5[C@]6(O)O[C@]4(C[C@]13O)[C@@]5(C)CC[C@@H]6O)[C@@]2(C)O	inactive: 2.55%	
OCC(O)[C@H]1O[C@@H]2O[C@H](C(Cl)(Cl)Cl)O[C@@H]2[C@H]1O (stereo partly specified)	inactive: 1.77%	
CNC(=O)c1cnc2sc(N3CCCCCC3)nn2c1=O	inactive: -6.03%	
Cc1ccc(S(=O)(=O)c2c(N)n(CC3CCOC3)c3nc4ccccc4nc23)cc1 (stereo unspecified)		inconclusive: 20 µM [activator, single point]
CCCc1c(OCCCOc2ccc(OCC(=O)O)cc2)ccc(C(C)=O)c1O		inconclusive: 5.01 µM [activator, full curve, poor fit]
O=C(/C=C/c1ccc(Cl)cc1Cl)NC(=S)Nc1ccc(CN2CCOCC2)cc1		inconclusive: 39.8 µM [inhibitor, single point]
Cc1ncsc1CCOC(=O)C1C2CC3CC(C2)CC1C3 (stereo unspecified)		inconclusive: 31.6 µM [inhibitor, single point]
O=c1c2cccnc2[nH]c(=S)n1Cc1ccccc1		inconclusive: 25.1 µM [inhibitor, single point]
c1ccc(N2CCN(c3nc4cc5c(cc4s3)OCCO5)CC2)cc1		inconclusive: 31.6 µM [inhibitor, single point]
CCOC(=O)c1c(C)[nH]c(C)c1C(=O)CSc1nnc(-c2ccco2)n1Cc1ccccc1		inconclusive: 25.1 µM [activator, partial curve]
Cc1ccc(C)c(N2C(=O)c3ccc(C(=O)OCC(=O)c4c(N)n(C)c(=O)n(C)c4=O)cc3C2=O)c1		inconclusive: 31.6 µM [activator, single point]
COc1ccc(CCNC(=O)/C(C#N)=C2\N=C(NC(=O)c3cccs3)c3ccccc32)cc1		inconclusive: 5.01 µM [inhibitor, full curve]
Cc1ccccc1Cn1c2ccccc2c2cnn(CC(=O)N3CCN(c4ccccc4)CC3)c(=O)c21		inconclusive: 39.8 µM [inhibitor, single point]
Cc1ccc(-c2csc3ncnc(Nc4ccc(N5CCOCC5)cc4)c23)cc1		inconclusive: 25.1 µM [activator, single point]
CCOC(=O)Cc1c(C)nc2c(-c3ccc(Cl)cc3)c(C(F)(F)F)nn2c1C	inactive: -20.6%	
COc1ccc(/C=C/C(=O)Nc2ccc3nc4c(c(Nc5ccc(OC)c(OC)c5)c3c2)CCCC4)cc1		inconclusive: 39.8 µM [inhibitor, single point]
CC(=O)c1c(C)[nH]c(C(=O)COC(=O)c2cccc(S(=O)(=O)N(C)c3ccccc3)c2)c1C		inconclusive: 0.0631 µM [inhibitor, full curve, poor fit]
CCC1CCCCN1S(=O)(=O)c1cc2c(cc1C)NC(=O)CO2 (stereo unspecified)	inactive: 1.61%	
COC(=O)C1=C(C)[C@@H](O)[C@@H](C)[C@](C)(c2cc(OC)c(C)c(OC)c2COc2ccccc2)O1	inactive: 14.4%	
O=c1[nH]c2ccc(NCc3ccc(-c4ccc(F)cc4)o3)cc2[nH]1		inconclusive: 39.8 µM [inhibitor, single point]
CC(C)C(=O)Nc1nnc(Sc2ccc(N(C)C)cc2)s1		inconclusive: 39.8 µM [inhibitor, single point]

Compound	max response, negative = inhibition	Potency
O=c1oc2ccc3ccccc3c2cc1-c1nnc(Nc2cccc(C(F)(F)F)c2)s1	inactive: 0.617%	
Cc1ccc2[nH]c(=O)c(C(c3nnnn3C(C)(C)C)N(Cc3ccco3)CC3CCCO3)cc2c1 (stereo unspecified)		inconclusive: 25.1 µM [activator, partial curve]
NNc1nc(-c2ccccc2)nc2sc3c(c12)CCCC3		inconclusive: 25.1 µM [inhibitor, single point]
Cc1ccc(C)c(NC(=O)c2nnn(Cc3ccc(F)cc3Cl)c2N)c1	inactive: 8.26%	
Cn1nc(-c2ccccc2F)c2cc(C(=O)NCc3cccc(Cl)c3)sc21		inconclusive: 39.8 µM [inhibitor, single point]
Oc1ccc(CNc2ccccc2)c2cccnc12		inconclusive: 31.6 µM [inhibitor, single point]
O=C(CC1SC(=O)N(Cc2cccc3ccccc23)C1=O)Nc1nccs1 (stereo unspecified)		inconclusive: 39.8 µM [inhibitor, single point]
Cc1cc(C)cc(NC(=O)c2cc(S(=O)(=O)N3CCCC3)ccc2F)c1	inactive: 1.97%	
COc1ccc(NC(=S)NCCCc2ccccc2)cc1		inconclusive: 0.631 µM [inhibitor, full curve, poor fit]
CCc1c(C)sc2c1CCN(C(=O)Nc1cc(C)ccc1C)C2c1ccc(OC)cc1 (stereo unspecified)		inconclusive: 39.8 µM [inhibitor, single point]
Cc1cccc(N2CN(Cc3cccnc3)CNC2=S)c1C	inactive: -7.39%	
O=C(Nc1ccc(F)cc1)c1cc2cc3ccc(Cl)cc3nc2o1	inactive: -9.12%	
CCCSc1nc2c(c(=O)[nH]c(=O)n2C)n1Cc1ccc(C)cc1	inactive: -23%	
CCOc1ccc(CN(Cc2ccco2)S(=O)(=O)c2ccc(-n3cnnn3)c(OC)c2)cc1		inconclusive: 25.1 µM [activator, single point]
Clc1ccccc1CN1CCc2nc(N3CCN(c4ncccn4)CC3)ncc2C1	inactive: 17.9%	
COc1ccc(C(=O)Nc2ccc(OC)c(OC)c2)cc1	inactive: -11.7%	
CCOc1ccc2nc(N3C(=O)/C(=C/c4ccccc4)NC3=S)sc2c1		active: 12.6 µM
CC1CCc2nc(NC(=O)CN3CCN(Cc4ccc5c(c4)OCO5)CC3)sc2C1 (stereo unspecified)	inactive: -7.28%	
Cc1ccccc1CNCc1c(C(=O)O)c(C)n(Cc2ccc(F)cc2Cl)c1C	inactive: 4.35%	
Cc1ccc(OCC(=O)OCC(=O)c2c(N)n(C)c(=O)n(C)c2=O)cc1C		inconclusive: 39.8 µM [activator, single point]
CCn1c(O)c(/C=N/N=C/c2ccccc2)c2ccc(C3=NNC(=O)CC3)cc21		inconclusive: 25.1 µM [activator, partial curve]
CCCCCC(=O)Nc1nc(C)c(-c2csc(Nc3ccccc3OC)n2)s1		active: 12.6 µM

Compound	max response, negative = inhibition	Potency
Cc1ccc2nc(NC(=O)c3ccc4c(c3)OCO4)sc2c1		inconclusive: 31.6 µM [inhibitor, single point]
Cc1ccc(C(=O)ONc2ccc(N=NC(=O)c3ccccc3O)cc2)cc1		inconclusive: 39.8 µM [activator, single point]
O=C(COc1ccc(Br)cc1Cl)NC(=S)N1CCc2ccccc21		inconclusive: 31.6 µM [inhibitor, single point]
COCC(=O)N1CCC2(CCCN(c3cccc(-c4ccccc4)c3)C2)CC1		inconclusive: 25.1 µM [activator, partial curve]
C=CCNC(=O)c1ccc(Cn2c(=S)[nH]c3cc4c(cc3c2=O)OCO4)cc1		inconclusive: 31.6 µM [inhibitor, single point]
O=C(CN(CC1CCCO1)S(=O)(=O)c1ccc(S(=O)(=O)NCC2CCCO2)cc1)Nc1ccccc1 (stereo unspecified)		inconclusive: 25.1 µM [activator, single point]
Cc1cccc(N2CCN(C(=O)c3cc4c(=O)n(C)c5ccccc5c4n3C)CC2)c1C	inactive: -3.94%	
CCOC(=O)CNC(=O)c1nn(-c2ccc(OCC)cc2)c(=O)c2ccccc12		inconclusive: 39.8 µM [activator, single point]
CCOc1ccccc1Nc1nnc(SC(C)C(=O)Nc2nc(-c3ccccc3)cs2)s1 (stereo unspecified)		active: 7.94 µM
COc1cc(Cl)c(C)cc1NC(=O)Cn1c(C)c2cnn(-c3ccccc3)c(=O)c2c1C	inactive: -5.11%	
Cn1cc(/C=C2\SC(=S)N(NC(=O)c3ccccc3Cl)C2=O)c2ccccc21		active: 10 µM
CCOC(=O)c1cnc(-n2cc(C)cn2)nc1Nc1ccccc1OCC		inconclusive: 31.6 µM [activator, single point]
COc1ccc(-c2cc(=O)oc3c4c(ccc23)OCN(Cc2ccccc2)C4)cc1		active: 25.1 µM
Cc1ccc(-c2nn(-c3cc(Cl)ccc3[N+](=O)[O-])c(=O)c3ccccc23)cc1		inconclusive: 31.6 µM [inhibitor, single point]
COc1ccc(Br)cc1/C=C/C(=O)c1ccc(NC(C)=O)cc1		inconclusive: 39.8 µM [activator, single point]
COc1ccccc1NC(=O)c1ccc(NC(=O)COC(=O)CC(NC(=O)c2ccccc2Cl)c2ccccc2)cc1 (stereo unspecified)		active: 20 µM
COc1ccccc1N1CCN(C(=O)CCNS(=O)(=O)c2ccc(Br)s2)CC1		inconclusive: 31.6 µM [activator, single point]
O=C(NCCN1CCOCC1)c1cc(-c2cccs2)on1		inconclusive: 20 µM [inhibitor, single point]
COc1ccc(Cn2c(SCc3ccc(C)cc3)nc3cc(OC)c(OC)cc3c2=N)cc1Cl		inconclusive: 39.8 µM [inhibitor, single point]
N/N=c1\sc2ccccc2n1-c1ccccc1		active: 15.8 µM
CC(C)(C)OC(=O)N1CCC(c2c(C(=O)N3CCN(Cc4ccccc4)CC3)cnn2-c2ccc(Cl)cc2)CC1		inconclusive: 39.8 µM [activator, single point]
CSc1ccc(/C=N/NC(=O)c2ccc(C)c(C)c2)cc1		inconclusive: 25.1 µM [inhibitor, single point]
